Source: PubChem BioAssay AID2147 (National Center for Advancing Translational Sciences (NCATS), 2009)
The whole screen tested about 230,000 compounds, of which about 3,600 (1.6%) were called active. The shares of active, inactive and inconclusive entries below differ from those in the screen. The call rests on the fitted dose curve; in most records, active means well fitted inhibition curve with a large enough effect (not every such curve was filed as active); inconclusive means small, poorly fitted or top-dose-only effect, or another doubt; inactive means no such curve, though single readings can be large or run the other way. Potencies of inconclusive entries are doubtful fits and often do not repeat.

Target: Lysine-specific demethylase 4E (Homo sapiens) (UniProt B2RXH2)
Chain of UniProt B2RXH2 (B2RXH2 whole entry, looked up, the tested form may be a part): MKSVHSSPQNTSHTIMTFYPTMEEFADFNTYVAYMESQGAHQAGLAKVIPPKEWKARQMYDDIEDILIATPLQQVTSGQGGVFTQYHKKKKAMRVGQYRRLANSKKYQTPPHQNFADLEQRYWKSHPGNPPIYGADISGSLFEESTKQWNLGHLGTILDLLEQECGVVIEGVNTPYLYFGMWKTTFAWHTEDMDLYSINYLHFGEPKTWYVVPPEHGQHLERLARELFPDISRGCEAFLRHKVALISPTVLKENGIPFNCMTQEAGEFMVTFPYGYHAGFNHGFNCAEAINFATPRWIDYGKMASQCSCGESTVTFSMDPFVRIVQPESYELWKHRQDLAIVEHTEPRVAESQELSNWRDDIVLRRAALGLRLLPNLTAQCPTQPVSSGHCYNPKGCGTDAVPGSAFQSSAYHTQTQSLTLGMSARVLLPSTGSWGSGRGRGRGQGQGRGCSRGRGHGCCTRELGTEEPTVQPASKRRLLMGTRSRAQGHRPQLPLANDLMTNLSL
Assay: qHTS Assay for Inhibitors of Human Jumonji Domain Containing 2E (JMJD2E)
Conditions: JMJD2E catalytic domain, FDH-coupled NADH fluorescence (FDH is formaldehyde dehydrogenase); series mostly up to 57.1 µM
Further: nearly all actives have a fitted effect of over 50% in size.
Potency means the concentration at half of the fitted maximal effect; tags describe the fitted curve by direction and shape.

SMILES	Potency
CC(=O)Nc1ccc(-c2cc(C(=O)O)c3ccccc3n2)cc1	inconclusive: 28.2 µM [inhibitor, partial curve]
Cn1nc(-c2ccccc2)c2cc(C(=O)O)sc21	inconclusive: 22.4 µM [inhibitor, partial curve]
CCOc1ccc(-n2nc(C(=O)N3CCN(CC)CC3)c3ccccc3c2=O)cc1	inactive
COc1cc2c(cc1OC)CN(C(=O)c1ccc(Br)o1)CC2	inconclusive: 22.4 µM [inhibitor, single point]
Cc1cccc(-n2ncc3c(N)ncnc32)c1	inconclusive: 25.1 µM [inhibitor, partial curve]
O=C1/C(=C/c2cccc([N+](=O)[O-])c2)CSc2ccc(Cl)cc21	inconclusive: 39.8 µM [inhibitor, single point]
O=c1[nH][nH]cc1C=Nc1ccc(Cl)cc1	inconclusive: 3.55 µM [inhibitor, single point]
CC1CCCN(c2ccc(C(=O)NCCc3ccccc3)cn2)C1 (stereo unspecified)	inconclusive: 35.5 µM [inhibitor, single point]
CCCCN1C2=C(C(=O)CC(C)(C)C2)C(c2ccccc2)C2=C1c1ccccc1C2=O (stereo unspecified)	inconclusive: 39.8 µM [inhibitor, single point]
Cn1c(-[n+]2c(-c3ccccc3)cc(-c3ccccc3)cc2-c2ccccc2)nc2cc([N+](=O)[O-])ccc21	inconclusive: 31.6 µM [inhibitor, single point]
CCSc1nnc(-c2ccc(S(=O)(=O)N3CCCC3)cc2)n1C	inconclusive: 28.2 µM [inhibitor, partial curve]
CSc1nnc(-c2cc3c(s2)-c2ccccc2CC3)o1	inconclusive: 28.2 µM [inhibitor, partial curve]
CCOC(=O)c1sc(NC(=O)c2ccc(C)s2)cc1C	inconclusive: 39.8 µM [inhibitor, single point]
CN1CCc2c1nc1ccccc1c2N=C1CCCN1Cc1ccccc1	inconclusive: 17.8 µM [inhibitor, single point]
CN1CCCc2cc(C#N)c(=O)[nH]c21	inconclusive: 28.2 µM [inhibitor, partial curve]
O=C(NCCCN1CCOCC1)C(=O)N/N=C/c1c(Cl)cccc1Cl	inactive
CCN=C1NN=C(c2c[nH]c3ccccc23)CS1	inactive
COc1cccc2sc(N3CCN(c4nc5ccccc5s4)CC3)nc12	inactive
COc1ccc(-c2ccccc2)cc1NCc1ccc(OC)c(OC)c1	inconclusive: 35.5 µM [inhibitor, partial curve]
COCCNc1oc(-c2ccccc2Cl)nc1C#N	inconclusive: 28.2 µM [inhibitor, partial curve]
COc1ccc(-c2nc3ccccc3n2CCC(C)C)cc1OC	inconclusive: 35.5 µM [inhibitor, single point]
Cc1c(Cl)cccc1NC(=O)Cn1cccc1	inactive
COc1ccccc1-c1ccc(C(=O)O)o1	inconclusive: 28.2 µM [inhibitor, partial curve]

SMILES	Potency
CC(OC(=O)CCc1c[nH]c2ccccc12)C(=O)c1ccccc1 (stereo unspecified)	inactive
CCN(CC)C(=S)Nc1ccc2nc3n(c(=O)c2c1)CCCCC3	inconclusive: 28.2 µM [inhibitor, partial curve]
COC(=O)c1sccc1NC(=O)/C=C/c1ccc(Cl)cc1	inconclusive: 35.5 µM [inhibitor, single point]
N#Cc1nc(Cc2cccc3ccccc23)oc1N1CCOCC1	inactive
O=C(NCC1CCCO1)c1cc2ccccc2[nH]1 (stereo unspecified)	inconclusive: 25.1 µM [inhibitor, partial curve]
Cc1cc(-n2c(C)cc(C(=O)COc3ccc4ccc(=O)oc4c3)c2C)no1	inconclusive: 31.6 µM [inhibitor, partial curve]
CC1CCc2c(sc3ncn(N)c(=N)c23)C1 (stereo unspecified)	inconclusive: 15.8 µM [inhibitor, single point]
CCOC(=O)N1CCN(C(=O)c2cc3c(s2)-c2ccccc2OC3)CC1	inconclusive: 22.4 µM [inhibitor, partial curve]
O=S(=O)(c1ccccc1)c1nc(-c2cccs2)oc1NCC1CCCO1 (stereo unspecified)	inconclusive: 39.8 µM [inhibitor, single point]
COc1ccc(CNc2ccc(-c3ccccc3OC)nn2)cc1	inactive
CCN(CC)S(=O)(=O)c1ccc(OC)c(NC(=O)C2CC(=O)N(c3ccc(C)cc3)C2)c1 (stereo unspecified)	inactive
CCC(=O)NCC(=O)OCC(=O)c1ccccc1	inactive
COc1ccc(-c2noc(=O)n2CC(=O)N2CCC(Cc3ccccc3)CC2)cc1	inactive
Cc1cc(/C=N/n2cnnc2)c(C)n1-c1ccc(Cl)cc1	inconclusive: 22.4 µM [inhibitor, single point]
COc1ccc(/C(C)=N/N2C(=O)c3ccccc3NC2c2ccc(O)c(OC)c2)cc1 (stereo unspecified)	inconclusive: 28.2 µM [inhibitor, single point]
Cc1ccc2nc(CSc3nc(C)cc(C)c3C#N)[nH]c2c1	inconclusive: 22.4 µM [inhibitor, partial curve]
COc1ccc(Cn2cccc(NC(=O)Nc3ccc(C#N)cc3)c2=O)cc1	inconclusive: 11.2 µM [inhibitor, partial curve]
C#CCN1C(=O)C(O)(CC(=O)/C=C/c2ccco2)c2ccccc21 (stereo unspecified)	inactive
CCN(CC)CCOC(=O)C(Cc1cccc2ccccc12)CC1CCCO1 (stereo unspecified)	active: 22.4 µM
CC(=O)Nc1nnc(-c2ccc(Cl)s2)o1	inconclusive: 39.8 µM [inhibitor, single point]
COc1ccc(CNc2nc3ccccc3n2Cc2ccc(C)cc2)cc1OC	inactive
O=C(Cn1ncc2c3ccccc3n(Cc3ccc(F)cc3)c2c1=O)N1CCN(c2ncccn2)CC1	inconclusive: 35.5 µM [inhibitor, single point]
CCOC(=O)c1[nH]c2ccc(OCC)cc2c1NC(=O)CN1CCN(c2ccccn2)CC1	inconclusive: 28.2 µM [inhibitor, partial curve]
